Measured values from the supplement of paper PMC8728848.
Some of the results follow.

Columns and labels:
Assay in all cases: glycan array binding signal (z-score within array); higher = stronger binding
Details in all cases: glycan notation: IUPAC condensed, linker removed
Fuc(a1-2)Gal = biological target: Fuc(a1-2)Gal
Summary of the method: (§1)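 Glycan array data came from 3228 arrays in the Consortium for Functional Glycomics database, and only arrays with an available protein sequence were kept. Glycan names were put into IUPAC-condensed notation, and columns mapping to the same glycan were averaged. The binding signal is a within-array Z-score, averaged across arrays of one protein sequence run at different concentrations or buffers and across linkers. A negative Z-score can be read as non-binding.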

Fuc(a1-2)Gal(b1-3)GalNAc = biological target: Fuc(a1-2)Gal(b1-3)GalNAc
Summary of the method: as §1

[1] = biological target: Fuc(a1-2)Gal(b1-3)GalNAc(b1-3)Gal
Summary of the method: as §1

[2] = biological target: Fuc(a1-2)Gal(b1-3)GalNAc(b1-3)Gal(a1-4)Gal(b1-4)Glc
Summary of the method: as §1

[3] = biological target: Fuc(a1-2)Gal(b1-3)GalNAc(b1-4)[Neu5Ac(a2-3)]Gal(b1-4)Glc
Summary of the method: as §1

Fuc(a1-2)Gal(b1-3)GlcNAc = biological target: Fuc(a1-2)Gal(b1-3)GlcNAc
Summary of the method: as §1

[4] = biological target: Fuc(a1-2)Gal(b1-3)GlcNAc(b1-3)Gal(b1-4)Glc
Summary of the method: as §1

[5] = biological target: Fuc(a1-2)Gal(b1-3)[Fuc(a1-4)]GlcNAc
Summary of the method: as §1

Fuc(a1-2)Gal(b1-4)Glc = biological target: Fuc(a1-2)Gal(b1-4)Glc
Summary of the method: as §1

Fuc(a1-2)Gal(b1-4)Glc6S = biological target: Fuc(a1-2)Gal(b1-4)Glc6S
Summary of the method: as §1

Fuc(a1-2)Gal(b1-4)GlcNAc = biological target: Fuc(a1-2)Gal(b1-4)GlcNAc
Summary of the method: as §1

[6] = biological target: Fuc(a1-2)Gal(b1-4)GlcNAc(b1-3)Gal(b1-4)GlcNAc
Summary of the method: as §1

[7] = biological target: Fuc(a1-2)Gal(b1-4)GlcNAc(b1-3)Gal(b1-4)GlcNAc(b1-3)Gal(b1-4)GlcNAc
Summary of the method: as §1

[8] = biological target: Fuc(a1-2)Gal(b1-4)GlcNAc6S
Summary of the method: as §1

[9] = biological target: Fuc(a1-2)Gal(b1-4)[Fuc(a1-3)]GlcNAc
Summary of the method: as §1

[10] = biological target: Fuc(a1-2)Gal(b1-4)[Fuc(a1-3)]GlcNAc(b1-3)Gal(b1-4)[Fuc(a1-3)]GlcNAc
Summary of the method: as §1

[11] = biological target: Fuc(a1-2)Gal(b1-4)[Fuc(a1-3)]GlcNAc(b1-3)Gal(b1-4)[Fuc(a1-3)]GlcNAc(b1-3)Gal(b1-4)[Fuc(a1-3)]GlcNAc
Summary of the method: as §1

Fuc(a1-2)Gal6S(b1-4)Glc = biological target: Fuc(a1-2)Gal6S(b1-4)Glc
Summary of the method: as §1

[12] = biological target: Fuc(a1-2)Gal6S(b1-4)Glc6S
Summary of the method: as §1

[13] = biological target: Fuc(a1-2)Gal6S(b1-4)GlcNAc
Summary of the method: as §1

Fuc(a1-2)[Gal(a1-3)]Gal = biological target: Fuc(a1-2)[Gal(a1-3)]Gal
Summary of the method: as §1

[14] = biological target: Fuc(a1-2)[Gal(a1-3)]Gal(b1-3)GlcNAc
Summary of the method: as §1

[15] = biological target: Fuc(a1-2)[Gal(a1-3)]Gal(b1-4)Glc
Summary of the method: as §1

[16] = biological target: Fuc(a1-2)[Gal(a1-3)]Gal(b1-4)GlcNAc
Summary of the method: as §1

[17] = biological target: Fuc(a1-2)[Gal(a1-3)]Gal(b1-4)[Fuc(a1-3)]GlcNAc
Summary of the method: as §1

[18] = biological target: Fuc(a1-2)[Gal(a1-4)]Gal(b1-4)GlcNAc
Summary of the method: as §1

[19] = biological target: Fuc(a1-2)[GalNAc(a1-3)]Gal
Summary of the method: as §1

[20] = biological target: Fuc(a1-2)[GalNAc(a1-3)]Gal(b1-3)GlcNAc
Summary of the method: as §1

[21] = biological target: Fuc(a1-2)[GalNAc(a1-3)]Gal(b1-4)Glc
Summary of the method: as §1

[22] = biological target: Fuc(a1-2)[GalNAc(a1-3)]Gal(b1-4)GlcNAc
Summary of the method: as §1

[23] = biological target: Fuc(a1-2)[GalNAc(a1-3)]Gal(b1-4)[Fuc(a1-3)]GlcNAc
Summary of the method: as §1

[24] = biological target: Fuc(a1-2)[GalNAc(a1-4)]Gal(b1-4)GlcNAc
Summary of the method: as §1

[25] = biological target: Fuc(a1-2)[GalNAc(b1-3)]Gal
Summary of the method: as §1

Fuc(a1-3)GlcNAc = biological target: Fuc(a1-3)GlcNAc
Summary of the method: as §1

[26] = biological target: Fuc(a1-3)[Gal(b1-4)]Glc6S
Summary of the method: as §1

[27] = biological target: Fuc(a1-3)[Gal(b1-4)]GlcNAc
Summary of the method: as §1

[28] = biological target: Fuc(a1-3)[Gal(b1-4)]GlcNAc(b1-2)Man(a1-3)[Fuc(a1-3)[Gal(b1-4)]GlcNAc(b1-2)Man(a1-6)]Man(b1-4)GlcNAc(b1-4)GlcNAc
Summary of the method: as §1

[29] = biological target: Fuc(a1-3)[Gal(b1-4)]GlcNAc(b1-2)Man(a1-6)[Gal(b1-4)GlcNAc(b1-2)Man(a1-3)]Man(b1-4)GlcNAc(b1-4)GlcNAc
Summary of the method: as §1

[30] = biological target: Fuc(a1-3)[Gal(b1-4)]GlcNAc(b1-3)Gal(b1-3)[Fuc(a1-4)]GlcNAc
Summary of the method: as §1

[31] = biological target: Fuc(a1-3)[Gal(b1-4)]GlcNAc(b1-4)Gal(b1-4)[Fuc(a1-3)]GlcNAc
Summary of the method: as §1

[32] = biological target: Fuc(a1-3)[Gal(b1-4)]GlcNAc(b1-4)Gal(b1-4)[Fuc(a1-3)]GlcNAc(b1-4)Gal(b1-4)[Fuc(a1-3)]GlcNAc
Summary of the method: as §1

[33] = biological target: Fuc(a1-3)[Gal(b1-4)]GlcNAc6S
Summary of the method: as §1

[34] = biological target: Fuc(a1-3)[Gal3S(b1-4)]Glc6S
Summary of the method: as §1

[35] = biological target: Fuc(a1-3)[Gal3S(b1-4)]GlcNAc
Summary of the method: as §1

[36] = biological target: Fuc(a1-3)[Gal3S(b1-4)]GlcNAc6S
Summary of the method: as §1

[37] = biological target: Fuc(a1-3)[GalNAc(b1-4)]GlcNAc
Summary of the method: as §1

Fuc(a1-4)GlcNAc = biological target: Fuc(a1-4)GlcNAc
Summary of the method: as §1

Fuc(b1-3)GlcNAc = biological target: Fuc(b1-3)GlcNAc
Summary of the method: as §1

Gal(a1-2)Gal = biological target: Gal(a1-2)Gal
Summary of the method: as §1

Gal(a1-3)Gal = biological target: Gal(a1-3)Gal
Summary of the method: as §1

Gal(a1-3)Gal(b1-3)GlcNAc = biological target: Gal(a1-3)Gal(b1-3)GlcNAc
Summary of the method: as §1

Gal(a1-3)Gal(b1-4)Glc = biological target: Gal(a1-3)Gal(b1-4)Glc
Summary of the method: as §1

Gal(a1-3)Gal(b1-4)GlcNAc = biological target: Gal(a1-3)Gal(b1-4)GlcNAc
Summary of the method: as §1

[38] = biological target: Gal(a1-3)Gal(b1-4)[Fuc(a1-3)]GlcNAc
Summary of the method: as §1

Gal(a1-3)GalNAc = biological target: Gal(a1-3)GalNAc
Summary of the method: as §1

[39] = biological target: Gal(a1-3)[Gal(a1-4)]Gal(b1-4)GlcNAc
Summary of the method: as §1

Gal(a1-4)Gal(b1-4)Glc = biological target: Gal(a1-4)Gal(b1-4)Glc
Summary of the method: as §1

Gal(a1-4)Gal(b1-4)GlcNAc = biological target: Gal(a1-4)Gal(b1-4)GlcNAc
Summary of the method: as §1

Gal(a1-4)GlcNAc = biological target: Gal(a1-4)GlcNAc
Summary of the method: as §1

Gal(a1-6)Glc = biological target: Gal(a1-6)Glc
Summary of the method: as §1

B1: Langerin CRD (Homo sapiens), Q9UJ71 (protein)
chain: QVVSQGWKYFKGNFYYFSLIPKTWYSAEQFCVSRNSHLTSVTSESEQEFLYKTAGGLIYWIGLTKAGMEGDWSWVDDTPFNKVQSVRFWIPGEPNNAGNNEHCGNIKAPSLQAWNDAPCDKTFLFICKRPYVPSEPSAWSHPQFEK
In the case of B1, the “glycan array binding signal (z-score)” value (Fuc(a1-2)Gal) is reported as 0.647, the “glycan array binding signal (z-score)” value (Fuc(a1-2)Gal(b1-3)GalNAc) is reported as -0.389 and the “glycan array binding signal (z-score)” value [1] is reported as -0.3. The “glycan array binding signal (z-score)” value [2] was -0.251, the “glycan array binding signal (z-score)” value [3] was -0.54 and the “glycan array binding signal (z-score)” value (Fuc(a1-2)Gal(b1-3)GlcNAc) was 0. For the same binder, the “glycan array binding signal (z-score)” value [4] was 0.033, the “glycan array binding signal (z-score)” value [5] was 0.233 and the “glycan array binding signal (z-score)” value (Fuc(a1-2)Gal(b1-4)Glc) was 0.866. For the same binder, the “glycan array binding signal (z-score)” value (Fuc(a1-2)Gal(b1-4)Glc6S) was 0.793, the “glycan array binding signal (z-score)” value (Fuc(a1-2)Gal(b1-4)GlcNAc) was -0.118 and the “glycan array binding signal (z-score)” value [6] was 0.495. The “glycan array binding signal (z-score)” value [7] was -0.328, the “glycan array binding signal (z-score)” value [8] was 0.385 and the “glycan array binding signal (z-score)” value [9] was 0.368. For the same binder, the “glycan array binding signal (z-score)” value [10] was 0.292, the “glycan array binding signal (z-score)” value [11] was -0.112 and the “glycan array binding signal (z-score)” value (Fuc(a1-2)Gal6S(b1-4)Glc) was 1.29. For the same binder, the “glycan array binding signal (z-score)” value [12] was 2.79, the “glycan array binding signal (z-score)” value [13] was 1.18 and the “glycan array binding signal (z-score)” value (Fuc(a1-2)[Gal(a1-3)]Gal) was 4.04. The “glycan array binding signal (z-score)” value [14] was -0.398, the “glycan array binding signal (z-score)” value [15] was -0.019 and the “glycan array binding signal (z-score)” value [16] was -0.266. For the same binder, the “glycan array binding signal (z-score)” value [17] was -0.349, the “glycan array binding signal (z-score)” value [18] was 0.546 and the “glycan array binding signal (z-score)” value [19] was 3.31. For the same binder, the “glycan array binding signal (z-score)” value [20] was -0.448, the “glycan array binding signal (z-score)” value [21] was -0.5 and the “glycan array binding signal (z-score)” value [22] was -0.319. The “glycan array binding signal (z-score)” value [23] was -0.408, the “glycan array binding signal (z-score)” value [24] was 0.525 and the “glycan array binding signal (z-score)” value [25] was 1.16. For the same binder, the “glycan array binding signal (z-score)” value (Fuc(a1-3)GlcNAc) was 1.52, the “glycan array binding signal (z-score)” value [26] was -0.557 and the “glycan array binding signal (z-score)” value [27] was -0.507. For the same binder, the “glycan array binding signal (z-score)” value [28] was -0.56, the “glycan array binding signal (z-score)” value [29] was -0.425 and the “glycan array binding signal (z-score)” value [30] was -0.405. The “glycan array binding signal (z-score)” value [31] was -0.427, the “glycan array binding signal (z-score)” value [32] was -0.354 and the “glycan array binding signal (z-score)” value [33] was -0.281. The “glycan array binding signal (z-score)” value [34] was -0.452, the “glycan array binding signal (z-score)” value [35] was -0.465 and the “glycan array binding signal (z-score)” value [36] was -0.293. For the same binder, the “glycan array binding signal (z-score)” value [37] was -0.442, the “glycan array binding signal (z-score)” value (Fuc(a1-4)GlcNAc) was -0.367 and the “glycan array binding signal (z-score)” value (Fuc(b1-3)GlcNAc) was 0.05. For the same binder, the “glycan array binding signal (z-score)” value (Gal(a1-2)Gal) was -0.41, the “glycan array binding signal (z-score)” value (Gal(a1-3)Gal) was -0.413 and the “glycan array binding signal (z-score)” value (Gal(a1-3)Gal(b1-3)GlcNAc) was -0.623. For the same binder, the “glycan array binding signal (z-score)” value (Gal(a1-3)Gal(b1-4)Glc) was -0.487, the “glycan array binding signal (z-score)” value (Gal(a1-3)Gal(b1-4)GlcNAc) was -0.613 and the “glycan array binding signal (z-score)” value [38] was -0.306. For the same binder, the “glycan array binding signal (z-score)” value (Gal(a1-3)GalNAc) was -0.466, the “glycan array binding signal (z-score)” value [39] was -0.304 and the “glycan array binding signal (z-score)” value (Gal(a1-4)Gal(b1-4)Glc) was -0.395. The “glycan array binding signal (z-score)” value (Gal(a1-4)Gal(b1-4)GlcNAc) was -0.479, the “glycan array binding signal (z-score)” value (Gal(a1-4)GlcNAc) was -0.292 and the “glycan array binding signal (z-score)” value (Gal(a1-6)Glc) was -0.427.
